Experimental data from patent US20200362003A1 (Genentech, published 2020).

T1: IL-22 RA1 ECD (Homo sapiens (Human), UniProt Q8N6P7 16-228)
T1 construct: also called IL22-RA1 extracellular domain; IL-22R1
T1 sequence: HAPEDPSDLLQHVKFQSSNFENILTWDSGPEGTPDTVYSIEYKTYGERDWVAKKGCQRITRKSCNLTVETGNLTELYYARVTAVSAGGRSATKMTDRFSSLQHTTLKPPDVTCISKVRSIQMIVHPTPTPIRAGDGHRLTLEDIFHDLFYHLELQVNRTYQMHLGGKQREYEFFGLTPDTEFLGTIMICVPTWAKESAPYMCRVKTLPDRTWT

T2: IL-22 receptor endogenously expressed on colo205 reporter cells (human, UniProt Q8N6P7 16-574; Q08334 20-325)
T2 sequence 1: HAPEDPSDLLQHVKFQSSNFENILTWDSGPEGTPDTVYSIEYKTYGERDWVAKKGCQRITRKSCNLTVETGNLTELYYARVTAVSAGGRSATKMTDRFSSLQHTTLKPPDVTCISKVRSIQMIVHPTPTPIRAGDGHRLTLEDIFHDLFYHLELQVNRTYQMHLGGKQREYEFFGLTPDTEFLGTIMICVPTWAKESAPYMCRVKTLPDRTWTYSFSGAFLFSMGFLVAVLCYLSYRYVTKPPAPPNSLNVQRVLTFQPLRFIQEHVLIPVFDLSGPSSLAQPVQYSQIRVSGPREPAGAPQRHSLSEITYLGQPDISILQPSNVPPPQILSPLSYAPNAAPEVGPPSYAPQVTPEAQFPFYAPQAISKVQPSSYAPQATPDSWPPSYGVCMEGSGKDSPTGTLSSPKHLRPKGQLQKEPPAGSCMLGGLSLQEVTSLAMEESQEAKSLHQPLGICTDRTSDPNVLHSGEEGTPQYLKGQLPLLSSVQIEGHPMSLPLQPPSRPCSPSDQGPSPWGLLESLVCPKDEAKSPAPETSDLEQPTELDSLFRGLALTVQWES
T2 sequence 2: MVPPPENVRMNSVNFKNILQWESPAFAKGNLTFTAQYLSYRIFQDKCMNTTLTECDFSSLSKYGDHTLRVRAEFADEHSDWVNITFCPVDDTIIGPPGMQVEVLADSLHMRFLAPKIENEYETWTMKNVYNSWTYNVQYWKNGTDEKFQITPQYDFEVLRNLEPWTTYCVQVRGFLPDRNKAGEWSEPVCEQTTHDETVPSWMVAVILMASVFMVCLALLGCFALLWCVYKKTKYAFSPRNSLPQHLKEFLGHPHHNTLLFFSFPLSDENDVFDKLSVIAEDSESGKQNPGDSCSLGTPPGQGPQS

B1: IL-22 Fc fusion protein SA Variant 0 Low mol/mol (Fc fusion)
chain: APISSHCRLDKSNFQQPYITNRTFMLAKEASLADNNTDVRLIGEKLFHGVSMSERCYLMKQVLNFTLEEVLFPQSDRFQPYMQEVVPFLARLSNRLSTCHIEGDDLHIQRNVQKLKDTVKKLGESGEIKAIGELDLLFMSLRNACIRV[human IgG4 Fc with S228P N297G (EU numbers) omitted here]
modifications: N-glycans on the IL-22 part, desialylated with sialidase A from SA Variant 4; 0.7 mol sialic acid per mol fusion protein
notes: Sialic acid variant from a development batch; also called SA level 0 low; IL-22 Fc, 0.7 mol/mol SA
B2: IL-22 Fc fusion protein SA Variant 0 High mol/mol (Fc fusion)
chain: APISSHCRLDKSNFQQPYITNRTFMLAKEASLADNNTDVRLIGEKLFHGVSMSERCYLMKQVLNFTLEEVLFPQSDRFQPYMQEVVPFLARLSNRLSTCHIEGDDLHIQRNVQKLKDTVKKLGESGEIKAIGELDLLFMSLRNACIRV[human IgG4 Fc with S228P N297G (EU numbers) omitted here]
modifications: N-glycans on the IL-22 part, desialylated with sialidase A from SA Variant 15; 0.9 mol sialic acid per mol fusion protein; more tetraantennary and galactosylated glycans than SA Variant 0 Low
B3: IL-22 Fc fusion protein SA Variant 4 mol/mol (Fc fusion)
chain: APISSHCRLDKSNFQQPYITNRTFMLAKEASLADNNTDVRLIGEKLFHGVSMSERCYLMKQVLNFTLEEVLFPQSDRFQPYMQEVVPFLARLSNRLSTCHIEGDDLHIQRNVQKLKDTVKKLGESGEIKAIGELDLLFMSLRNACIRV[human IgG4 Fc with S228P N297G (EU numbers) omitted here]
modifications: N-glycans on the IL-22 part; 4.6 mol sialic acid per mol fusion protein
B4: IL-22 Fc fusion protein SA Variant 8 mol/mol (Fc fusion)
chain: APISSHCRLDKSNFQQPYITNRTFMLAKEASLADNNTDVRLIGEKLFHGVSMSERCYLMKQVLNFTLEEVLFPQSDRFQPYMQEVVPFLARLSNRLSTCHIEGDDLHIQRNVQKLKDTVKKLGESGEIKAIGELDLLFMSLRNACIRV[human IgG4 Fc with S228P N297G (EU numbers) omitted here]
modifications: N-glycans on the IL-22 part; 8.1 mol sialic acid per mol fusion protein
notes: Sialic acid variant; also called IL-22 Fc, 8.1 mol/mol SA
B5: IL-22 Fc fusion protein SA Variant 12 mol/mol (Fc fusion)
chain: APISSHCRLDKSNFQQPYITNRTFMLAKEASLADNNTDVRLIGEKLFHGVSMSERCYLMKQVLNFTLEEVLFPQSDRFQPYMQEVVPFLARLSNRLSTCHIEGDDLHIQRNVQKLKDTVKKLGESGEIKAIGELDLLFMSLRNACIRV[human IgG4 Fc with S228P N297G (EU numbers) omitted here]
modifications: N-glycans on the IL-22 part; 12.0 mol sialic acid per mol fusion protein
notes: Sialic acid variant; also called IL-22 Fc, 12.0 mol/mol SA
B6: IL-22 Fc fusion protein SA Variant 15 mol/mol (Fc fusion)
chain: APISSHCRLDKSNFQQPYITNRTFMLAKEASLADNNTDVRLIGEKLFHGVSMSERCYLMKQVLNFTLEEVLFPQSDRFQPYMQEVVPFLARLSNRLSTCHIEGDDLHIQRNVQKLKDTVKKLGESGEIKAIGELDLLFMSLRNACIRV[human IgG4 Fc with S228P N297G (EU numbers) omitted here]
modifications: N-glycans on the IL-22 part; 15.4 mol sialic acid per mol fusion protein
notes: Sialic acid variant; also called IL-22 Fc, 15.4 mol/mol SA

Columns and labels:
IL-22 RA1 ECD = molecular target: T1, IL-22 RA1 ECD; assay: plate binding assay on coated IL-22 RA1 ECD, relative to Reference Standard, mean of n = 2; * = estimate of potency
Protocol: The IL-22 Fc fusion protein potency assay measures the ability of IL-22 Fc fusion protein to bind to the IL-22 RA1 ECD. In the assay, varying concentrations of IL-22 Fc fusion protein Reference Standard Batch, control, and samples are added to a 96-well plate coated with IL-22 RA1 ECD. Bound IL-22 Fc fusion protein is detected with goat anti-human IgG-horseradish peroxidase (HRP) antibody and a tetramethylbenzidine substrate solution. The results, expressed in optical density (OD) units, are plotted against IL-22 Fc fusion protein concentrations, and a parallel curve program is used to calculate the measured potency of IL-22 Fc fusion protein sample(s) relative to the Reference Standard Batch.
The presence and level of sialylation is known to have an impact on the interactions of glycoproteins, such as IL-22 (Marchal et al. Biol Chem 382:151-9, 2001). To study the impact of sialic acid on the interaction between IL-22 Fc fusion protein and the IL-22 receptor, IL-22 Fc fusion protein samples from different development batches with varying levels of sialic acid (quantitation limit of assay 3 mol/mol), 0.7, 4.6, 8.1, 12.0, or 15.4 mol sialic acid/mol IL-22 Fc fusion protein, were generated and tested in the binding assay and a cell-based reporter gene assay. The cell-based assay is a reporter gene assay that measures the ability of IL-22 Fc fusion protein to activate luciferase expression in engineered stable colo205 cells, which endogenously express IL-22 receptor. In the engineered stable colo205 cell reporter cell line, binding of a signal transducer and activator of transcription 3 (STAT3), to its DNA response elements in the promoter of the reporter gene induces firefly Luciferase expression. In the assay, colo205 reporter gene-expressing cells were incubated with prepared dilutions of IL-22 Fc fusion protein Reference Standard, Assay Control, and test samples in a 96-well assay plate. After a timed incubation, Luciferase Reagent was added to the wells of the assay plate, and reporter gene activity was measured using a luminescent plate reader. The amount of light emitted in each well of the assay plate is directly proportional to the amount of Luciferase induced by IL-22 Fc fusion protein Reference Standard, Assay Control, and test sample.

[1] = molecular target: T2, IL-22 receptor endogenously expressed …; assay: cell-based or functional assay

Binding Result (% Relative Potency), Mean (IL-22 RA1 ECD) | Cell-based Result (% Relative Activity), Mean; STAT3 luciferase reporter gene assay in colo205 cells [1] | Binder
~168% | 148 % Relative Activity | B1
 | 121 % Relative Activity | B2
 | 99 % Relative Activity | B3
~54% | 67 % Relative Activity | B4
~30% | 39 % Relative Activity | B5
~18% | 26 % Relative Activity | B6
